# Assay results from paper PMC4336329 (PLoS ONE, 2015).
# Out of some 310,000 compounds screened, about 2,200 (0.71%) showed an effect of 50% or more. Effects have a minus sign here. Some of the results follow.
# Biological target: human ether-à-go-go-related gene (hERG) potassium channel (human, UniProt Q12809)
# Assay: primary screen, population patch clamp on CHO cells stably expressing hERG
# human ether-à-go-go-related gene (hERG) potassium channel, sequence (Q12809 whole entry, looked up): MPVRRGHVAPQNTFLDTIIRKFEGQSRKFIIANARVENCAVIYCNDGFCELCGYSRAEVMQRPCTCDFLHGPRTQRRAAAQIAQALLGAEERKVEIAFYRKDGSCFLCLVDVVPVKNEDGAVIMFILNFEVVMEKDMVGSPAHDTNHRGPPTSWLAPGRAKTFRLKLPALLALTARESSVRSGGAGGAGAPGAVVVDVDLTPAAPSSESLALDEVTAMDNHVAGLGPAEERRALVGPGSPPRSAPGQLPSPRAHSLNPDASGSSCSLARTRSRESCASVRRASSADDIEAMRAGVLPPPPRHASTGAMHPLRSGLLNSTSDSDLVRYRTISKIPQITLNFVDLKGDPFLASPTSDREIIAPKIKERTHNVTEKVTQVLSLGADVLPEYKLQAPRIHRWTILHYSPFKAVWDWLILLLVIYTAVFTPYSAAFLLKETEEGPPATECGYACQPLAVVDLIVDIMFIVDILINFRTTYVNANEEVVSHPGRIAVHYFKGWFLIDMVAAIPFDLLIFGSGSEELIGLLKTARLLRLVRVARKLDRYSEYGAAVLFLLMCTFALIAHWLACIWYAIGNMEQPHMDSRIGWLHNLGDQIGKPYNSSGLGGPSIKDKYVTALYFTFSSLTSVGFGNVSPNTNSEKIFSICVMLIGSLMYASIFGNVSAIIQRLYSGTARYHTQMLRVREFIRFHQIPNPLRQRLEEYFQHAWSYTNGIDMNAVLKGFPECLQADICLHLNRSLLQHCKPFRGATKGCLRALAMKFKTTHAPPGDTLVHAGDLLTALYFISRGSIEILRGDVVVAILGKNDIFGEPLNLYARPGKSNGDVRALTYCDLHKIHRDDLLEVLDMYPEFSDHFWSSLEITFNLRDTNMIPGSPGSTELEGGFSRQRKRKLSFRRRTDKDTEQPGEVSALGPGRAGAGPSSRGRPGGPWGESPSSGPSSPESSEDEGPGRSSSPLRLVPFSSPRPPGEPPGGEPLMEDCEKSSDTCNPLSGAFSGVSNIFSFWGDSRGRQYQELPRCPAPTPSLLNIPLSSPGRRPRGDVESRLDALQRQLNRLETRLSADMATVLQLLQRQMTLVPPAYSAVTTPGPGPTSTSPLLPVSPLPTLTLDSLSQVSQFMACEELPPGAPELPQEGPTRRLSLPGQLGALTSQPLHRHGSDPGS
row,SMILES,"hERG current change (%, negative = inhibition) at 1uM [%]"
1,Cc1ccc2c(CN3CCCCC3CCO)cc(=O)oc2c1 (stereo not drawn),-2.35
2,CC(NC(=O)Cc1cccc(C(F)(F)F)c1)c1ccc(F)cc1 (stereo not drawn),11.9
3,Cc1ccc(S(=O)(=O)N2CCN(C(=O)c3ccccc3)C2C(C)C)cc1 (stereo not drawn),11
4,Cc1nc(NNC(=O)c2ccc(Cl)cc2Cl)cc(-c2ccccc2)n1,3.93
5,CCCCn1c(N)c(N(CCOC)C(=O)COC(=O)/C=C/c2ccc(Br)cc2)c(=O)[nH]c1=O,2.34
6,COc1ccc(OC)c(CC(NC(C)=O)C(=O)NC2CCN(S(=O)(=O)c3ccc(NC(C)=O)cc3)CC2)c1 (stereo not drawn),-0.398
7,CC(=O)c1cccc(NC(=O)c2ccc(S(=O)(=O)N3CC(C)OC(C)C3)cc2)c1 (stereo not drawn),13.7
8,COCCNC(=S)N(C)C1(c2ccccc2Cl)CCCCC1=O (stereo not drawn),20.8
9,Cn1c(-c2ccc(C(F)(F)F)cc2)cc2onc(-c3ccccc3)c2c1=O,9.26
10,O=[N+]([O-])c1ccc(C2C3C(c4ccccc4)=NC4(CCCCC4)N32)cc1 (stereo not drawn),-0.742
11,Cc1ccc(C)n1-n1cnc2sc3c(c2c1=O)CCC3,13.9
12,CCc1nnc(NC(=O)c2ccc(S(=O)(=O)N(C)Cc3ccccc3)cc2)o1,5.74
13,CCCC(=O)N(CCc1ccccc1)Cc1nc2ccccc2c(=O)[nH]1,4.21
14,COc1ccc(CNC(=O)/C=C/c2ccc(OCCCF)cc2)cc1OC,3.81
15,CC(/C=N/NC(=O)Cc1cccn1C)=C\c1ccccc1,-1.81
16,Cn1nnnc1SCC(=O)Nc1ccc(Br)cc1Cl,4.24
17,CCCCC(=O)Nc1ccc(NC(=O)c2cccs2)cn1,-0.0253
18,COc1ccc(C(=O)N/C(=C\c2ccc([N+](=O)[O-])cc2)C(=O)NC(CCSC)C(=O)O)cc1 (stereo not drawn),11.8
19,O=C(CSc1ccc(-c2ccccn2)nn1)c1ccc([N+](=O)[O-])cc1,11.3
20,COc1ccc(OC)c(N2C(=O)CC(Cc3cc(C)cc(C)c3)C2=O)c1 (stereo not drawn),5.71
21,CN(C)CCCN(C(=O)c1ccco1)c1nc2ccc(F)cc2s1.Cl,-37.4
22,CN(Cc1ccc(N(C)C)cc1)C(=O)c1cc2ccccc2o1,8.08
23,Cc1ccc2nsnc2c1S(=O)(=O)NCCc1c(C)[nH]c2ccc(F)cc12,-1.76
24,[O-]/C(=C(\C(=S)Nc1ccc(SC(F)F)cc1)[n+]1cccc(CO)c1)c1ccc(Cl)s1,7.35
